Reference: PubChem BioAssay AID1159614 (National Center for Advancing Translational Sciences (NCATS), 2016)
In all, about 45,000 compounds went through this assay and about 65 (0.1%) were called active. The call rests on the fitted dose curve; in most records, active means well fitted activation curve with a large enough effect; inconclusive means small, poorly fitted or top-dose-only effect; inactive means no such curve, though single readings can be large or run the other way. The list shows a part of the results.

Each molecule was assayed against Galactocerebrosidase (Homo sapiens) (UniProt P54803) (assay: A Novel Cell-Based Assay to Identify Small Molecules for B -Galactocerebrosidase). Settings: 145M-Twi-hGALC-G270D cells (Twitcher mouse brain line with human GALC G270D), HMU-beta-Gal fluorescence, 48 h; series mostly up to 57.5 µM; activation: at the top concentration.
In short: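 Fluorescence readout: HMU-β-gal cleavage by mutant GALC (0.1 mM final, citrate/phosphate pH 5.2 with 1 mg/mL taurocholate), stopped with carbonate/bicarbonate plus Triton X-100. Cells: murine Twitcher 145M-Twi expressing human G270D GALC; qHTS for activators.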
Further: 0% is about no effect; nearly all actives have a fitted effect of over 65% in size.

UniProt P54803, sequence (P54803 whole entry, looked up): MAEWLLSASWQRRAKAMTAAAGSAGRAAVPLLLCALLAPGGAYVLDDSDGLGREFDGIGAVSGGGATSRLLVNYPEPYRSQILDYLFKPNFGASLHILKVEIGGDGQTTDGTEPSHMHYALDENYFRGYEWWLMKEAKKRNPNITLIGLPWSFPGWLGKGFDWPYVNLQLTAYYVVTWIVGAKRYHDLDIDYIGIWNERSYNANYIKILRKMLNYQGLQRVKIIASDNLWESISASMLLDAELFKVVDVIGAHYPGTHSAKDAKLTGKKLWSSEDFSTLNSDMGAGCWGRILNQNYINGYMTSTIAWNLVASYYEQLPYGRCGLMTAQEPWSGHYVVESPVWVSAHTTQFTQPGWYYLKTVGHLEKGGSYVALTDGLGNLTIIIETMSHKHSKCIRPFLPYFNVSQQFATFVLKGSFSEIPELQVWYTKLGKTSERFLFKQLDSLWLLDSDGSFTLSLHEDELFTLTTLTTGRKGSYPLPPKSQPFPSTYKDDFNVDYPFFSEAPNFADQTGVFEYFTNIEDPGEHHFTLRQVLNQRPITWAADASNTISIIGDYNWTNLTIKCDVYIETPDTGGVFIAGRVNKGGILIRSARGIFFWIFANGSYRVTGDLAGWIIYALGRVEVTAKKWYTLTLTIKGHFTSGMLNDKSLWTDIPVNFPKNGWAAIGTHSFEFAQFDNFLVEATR

activation, inactive:
CSc1ncc(C(=O)Nc2ccc(C)c(Cl)c2)c(-c2ccccc2)n1 6.11%
Cc1sc2ncn(CC(=O)Nc3ccc(C(C)C)cc3)c(=O)c2c1S(=O)(=O)N1CCN(c2ncccn2)CC1 -13%
COc1ccc(S(=O)(=O)Nc2ccc3oc4c(c3c2)CCCC4)cc1 -16.5%
COc1ccc2c(c1)sc1ncc(C(=O)NCc3ccccc3F)c(=O)n12 -15.7%
Cc1ccc(S(=O)(=O)c2nnn3c2nc(NC(C)C)c2cc(Cl)ccc23)cc1C -13.6%
CC1(C)N=C(SCc2ccccc2Cl)c2ccccc2N1 -6.65%
CCCCNC(=O)CSc1nc2n[nH]c(C)c2c(=N)n1-c1cccc(Cl)c1C -9.8%
Cc1cccc(-c2noc(-c3cccnc3NCc3ccc(Cl)cc3)n2)c1 -9.28%
O=C(c1cccc(Cl)c1)N1c2nc(-c3ccco3)nn2C2(CCCCC2)[C@@H]2CCCC[C@@H]21 -15.4%
CCOc1ccc(NS(=O)(=O)c2ccc(C(=O)N(C)C)s2)cc1 -14.7%
C#CCn1c(=NC(=O)c2ccc3c(c2)OCCO3)sc2cc(OC)c(OC)cc21 -20%
COc1ccc(CCNC(=O)CCCCn2c(=O)c3ccccc3n(CC(=O)Nc3c(C)cccc3C)c2=O)cc1OC -9.25%
O=C(CCSCc1cccc(Cl)c1)N1CCN(c2ccc(Cl)cc2)CC1 -9.08%
COc1cccc(NC(=O)CC(=O)Nc2ccc3nc4n(c(=O)c3c2)CCCCC4)c1 -10.4%
Cc1nc2ccc(S(=O)(=O)CCC(=O)Nc3ccc(Cl)cc3)cc2s1 -9.49%
COC(=O)c1scc(-c2ccc(C)cc2)c1S(=O)(=O)N1CCN(c2ccccc2)CC1 -14.1%
CCOC(=O)c1c(C)[nH]c(C)c1S(=O)(=O)NCC(=O)Nc1cccc(C#N)c1 2.7%
COc1ccc(S(=O)(=O)N2CCC(C(=O)Nc3ccccc3)CC2)cc1OC -7.17%
COc1cc(OC)cc(N2C(=O)N(Cc3ccc(C(C)(C)C)cc3)c3ccccc3S2(=O)=O)c1 -10.7%
CCOC(=O)N1CCN(C(=O)CN(c2ccccc2F)S(=O)(=O)c2ccc(C)cc2)CC1 1.05%
Cc1ccc(Cn2cc(S(=O)(=O)c3cccc(Cl)c3)c(=O)c3cc(F)c(N4CCCCC4)cc32)cc1 1.26%
Nc1c(C(=O)Nc2ccccc2Cl)c2ccccn2c1C(=O)c1ccccc1 -12.8%
CCOc1ccc(NC(=O)c2c(NCc3cccc(OC)c3OC)sc3c2CCC3)cc1 -5.92%
CCc1ccc(NC(=O)CN(c2ccc(Cl)cc2)S(=O)(=O)c2ccsc2C(=O)OC)cc1 -30.9%
O=C(C1CCCN(S(=O)(=O)c2cccc3nsnc23)C1)N1CCN(c2ccccc2)CC1 (stereo not drawn) -21.8%
O=C1NCN(c2ccccc2)C12CCN(CCCC(c1ccc(F)cc1)c1ccc(F)cc1)CC2 -4.52%
COc1ccc(OC)c(CNC(=O)c2ccc3c(c2)c(C)c(C)n3Cc2ccc(Cl)cc2)c1 -5.87%
Cc1ccc(C)c(CN2C(=O)C(O)(c3c(C)[nH]c4ccccc34)c3ccccc32)c1 (stereo not drawn) -27.6%
O=C(NCc1cccs1)c1ccc2c(c1)N(Cc1cccc(F)c1)C(=O)c1ccccc1S2 -17.8%
CCOC(=O)c1noc2nc(C)n(CC(=O)NC(C)CC)c(=O)c12 (stereo not drawn) -27.8%
Cc1cc(C)cc(NC(=O)CSc2nc(=O)n(CCN3CCOCC3)c3c2CCC3)c1 -5.85%
COC(=O)c1c(NC(=O)Cc2coc3cc(C)ccc23)sc2c1CCC2 -3.7%
Cc1ccc(Cl)cc1NC(=O)CSc1nccn1C -3.03%
CCCCN(CC)C(=O)c1nn(C)c2c1CSc1ccccc1-2 -10.4%
Cc1oc(-c2cccc(Cl)c2)nc1CS(=O)(=O)CC(=O)NC(C)CCc1ccccc1 (stereo not drawn) 11.9%
CC(=O)c1cccc(NC(=O)CSc2nc(=O)n(Cc3ccco3)c3c2CCC3)c1 -3.79%
CCOc1ccccc1CNC(=O)c1ccc2c(c1)N(Cc1ccc(C)cc1)CCS2 -39%
COc1ccc(Cl)cc1NC(=O)C(C)Sc1nc2c(c(=O)[nH]1)CCCC2 (stereo not drawn) 5.09%
CC1(C)O[C@H]2[C@@H](O1)[C@@H](C(=O)Nc1ccccc1C(F)(F)F)O[C@@H]1OC(C)(C)O[C@@H]12 -12.7%
COc1ccc(-n2c(-c3ccco3)nc3c(cnn3-c3ccc(Cl)cc3)c2=O)cc1 4.08%
O=C(NCCc1ccccc1Cl)C1CCN(c2nc3ccccc3nc2C(F)(F)F)CC1 6.72%
Cc1ccc(NC(=O)C2CCCN(C(=O)c3cnn(-c4ccc(F)cc4)c3-n3cccc3)C2)c(Cl)c1 (stereo not drawn) -31.5%
Cc1ccccc1CNC(=O)C(C)N(c1ccccc1)S(C)(=O)=O (stereo not drawn) -6.51%
O=C(CSc1ccc(-c2cccs2)nn1)Nc1ccccc1C(F)(F)F -6.57%
O=C(CCC1N=C2c3ccccc3N=C(SCc3ccc(F)cc3)N2C1=O)NCCc1ccccc1 (stereo not drawn) -23.3%
CCOc1ccc(/C=C/c2nc(C#N)c(NCc3ccccc3)o2)cc1 -13.9%
Cc1cccn2c(=O)c(C(=O)NC(C)c3ccccc3)cnc12 (stereo not drawn) -3.71%
Cc1ccc(OCc2nc(-c3ccc(C(=O)NCc4ccc(OC(C)C)cc4)cc3)oc2C)cc1 -16.2%
CCN(C(=O)c1cc2c(=O)oc3ccc(C)cc3c2s1)c1ccccc1C -11.4%
CCN(CC)S(=O)(=O)c1ccc2nc(NC(=O)c3cncc(Br)c3)sc2c1 -13.8%
Cc1ccc(C(=O)c2cn(Cc3ccc(Cl)cc3)c3nc(C)ccc3c2=O)cc1 -14.5%
COc1ccc(N2CCN(C(=O)CSc3n[nH]c(-c4ccccc4Cl)n3)CC2)cc1 -8.06%
Cc1cc(C)cc(N2C(=O)N(Cc3cccc(F)c3)c3ccccc3S2(=O)=O)c1 -11.4%
COc1ccc(Nc2oc(-c3ccc(COc4ccccc4C)o3)nc2C#N)cc1 -10.6%
Cc1ccc(C)c(CN2C(=O)c3ccccc3S(=O)(=O)c3ccc(C(=O)NCCC4=CCCCC4)cc32)c1 -11.3%
Cc1cc(C)c(NC(=O)C(C)n2nnc3sc4c(c3c2=O)CCCC4)c(C)c1 (stereo not drawn) -0.604%
Cc1ccc2oc(=O)c(S(=O)(=O)c3ccc(C(C)(C)C)cc3)cc2c1 -17.9%
CN(C)c1ccc(CNC(=O)CN2CCSc3ccc(S(=O)(=O)N(C)C)cc32)cc1 -39.7%
CCc1ccccc1NC(=O)Nc1nnc(N(CC)c2ccccc2)s1 -17.3%
COc1ccc(OC)c2sc(N(Cc3cccnc3)C(=O)c3ccco3)nc12 -4.91%
Cc1cc(NC(=O)CN2C(=O)c3cccnc3Sc3ccccc32)ccc1Br -11.9%
CCN1CCN(c2ncc3c(n2)CC(c2ccccc2O)CC3=O)CC1 (stereo not drawn) -12.9%
Cc1ccc(CNC(=O)c2cc(-c3ccc(Cl)cc3)on2)cc1 -16.6%
COc1ccc(CNC(=O)c2oc3c(c2C)-c2nn(Cc4ccc(Cl)cc4)cc2CC3)cc1 -13.1%
O=C(Nc1ccc(Br)cc1)C1CCCN1S(=O)(=O)c1ccc(F)cc1 (stereo not drawn) -14.3%
CC(C)(C)c1ccc(C(=O)Nc2sc3c(c2C#N)CCC(C(C)(C)C)C3)cc1 (stereo not drawn) -11.1%
CCOc1ccc(NC(=O)Cn2c(=O)n(CC(=O)NCc3ccccc3Cl)c(=O)c3sccc32)cc1 23.6%
Cc1ccc(NC(=O)C2CCN(c3nn4cc(-c5ccc(C)cc5)nc4s3)CC2)cc1 -14%
Cc1ccc(CNC(=O)CNS(=O)(=O)c2cccs2)cc1 -18.2%
CCCCCn1c(=O)[nH]c2cc(C(=O)N3CCN(c4cccc(C(F)(F)F)c4)CC3)ccc2c1=O -0.0307%
CCN(c1ccccc1)S(=O)(=O)c1nnc(NC(=O)COc2cccc(C)c2)s1 -7.15%
CC(C)c1nn2c(=O)cc(COC(=O)c3ccccc3NC(=O)c3cccc(Cl)c3)nc2s1 -8.34%
COc1ccc(CCNC(=O)CCn2c(=O)c3ccccc3n(Cc3ccccc3)c2=O)cc1OC 1.28%
Cc1nnc(NC(=O)CSCc2cc(=O)c3ccccc3[nH]2)s1 -14.4%
COc1cc(OC)c(NS(=O)(=O)c2c(C(=O)N3CCC(C)CC3)c(C)n(C)c2C)cc1Cl 1.25%
Nc1c(I)cc(I)c(C(=O)N(CCC(=O)O)c2ccccc2)c1I -6.59%
CCc1ccc(C(=O)c2cn(Cc3ccc(F)cc3)c3cc(OC)c(OC)cc3c2=O)cc1 -6.59%
COc1ccc(N2CCN(Cc3nnc(-c4cccc(Br)c4)o3)CC2)cc1 -10.1%
COc1ccc(CCNC(=O)C(C)n2c(=O)cc(C(F)(F)F)c3c(C)nn(C)c32)cc1OC (stereo not drawn) -14.7%
Cc1cc(C)cc(Oc2nc3c(C)cccn3c(=O)c2/C=C(\C#N)c2nc3ccccc3s2)c1 -11.6%
CCS(=O)(=O)N1CC(=O)N(c2ccc(Cl)cc2)C(C)(C(=O)NC2CCCCCC2)C1 (stereo not drawn) 4.34%
COC(=O)c1ccccc1NC(=O)c1cnc2c(-c3cccc(C)c3)c(C)nn2c1C -17.3%
Cc1nc2ccn(Cc3cccnc3)c(=O)c2cc1C(=O)N1CCN(c2ccc(F)cc2)CC1 -17.8%
CN(C)CCNc1oc(-c2ccc(COc3ccc(Cl)cc3)o2)nc1C#N -7.94%
CC(C)Cn1c(-c2ccc(S(=O)(=O)N3CCOCC3)cc2)csc1=Nc1cc(Cl)ccc1Cl -12.9%
COc1cccc(NC(=O)/C(C#N)=C/c2c(C)n(Cc3ccc(Cl)cc3)c3ccccc23)c1 -19.5%
COc1ccc(CCn2c3c(c(=O)[nH]c2=O)C(NC(=O)c2ccc(C(C)(C)C)cc2)(C(F)(F)F)C(=O)N3)cc1OC (stereo not drawn) -5.78%
Cc1ccc(C(C)C)c(OCCSc2nc3ccccc3n2CC(O)CO)c1 (stereo not drawn) -13.3%
COc1ccccc1Cc1nc2ccccc2nc1SCC(=O)N1CCN(c2ccccc2)CC1 -13.4%
CC(=O)c1cc(-c2ccc(F)cc2)n(CC(=O)Nc2cc(C)cc(C)c2)c1C -11.1%
CCOc1ccc(Nc2nc3c(S(=O)(=O)c4ccc(C(C)C)cc4)nnn3c3ccsc23)cc1 -6.72%
Cc1cc2nc(-c3ccc(NC(=O)c4cc5ccccc5o4)cc3)oc2cc1C 5.71%
O=C(NCc1ccco1)c1ccc2c(c1)N(Cc1ccc(Cl)cc1)C(=O)c1ccccc1S2 -0.177%
